Over roughly 33,000 sequences, “E-score (-0.5 to 0.5)” has its median near -0.017; the highest 2% begin near 0.3. The list shows a part of the results.
molecular target: T1, Sut1 (UniProt P53032); experiment: PBM E-score (8-mer binding enrichment) (E-score (-0.5 to 0.5)); higher = stronger / more preferred TF binding; most listed sequences are background and not binding sites; settings: protein concentration: 200 nM; construct: GST-full length
T1 sequence: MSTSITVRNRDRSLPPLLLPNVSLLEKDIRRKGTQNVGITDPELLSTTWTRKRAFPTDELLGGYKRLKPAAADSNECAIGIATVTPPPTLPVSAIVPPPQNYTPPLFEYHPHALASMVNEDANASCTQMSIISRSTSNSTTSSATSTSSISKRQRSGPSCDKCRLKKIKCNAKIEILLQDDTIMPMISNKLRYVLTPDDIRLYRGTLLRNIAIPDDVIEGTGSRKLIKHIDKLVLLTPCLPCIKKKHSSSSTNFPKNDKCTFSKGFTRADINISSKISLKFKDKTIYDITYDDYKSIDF
Procedure, shortened: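 Yeast transcription factors carrying a GST tag, as full-length proteins or DNA-binding domains, were produced by PURExpress in vitro transcription/translation. About 100-200 nM protein was applied to universal all-10-mer Agilent arrays, double-stranded by primer extension on fresh or once-stripped slides. Bound protein was detected with fluorescent anti-GST, and scans were normalised with masliner. The Universal PBM Analysis Suite gave each ungapped eight-base word, pooled with its reverse complement, an E-score, a modified Wilcoxon-Mann-Whitney statistic.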

Sequence | PBM E-score
CTCAGTCC | -0.0236
CAACCATA | 0.172
GAATTCCC | -0.116
ATACTAAG | 0.142
CCTTGCCA | -0.0514
ATGCTGCC | -0.274
CCGAGAAA | 0.339
ACTAGCAG | 0.0346
CTGTAGTC | -0.152
AGCTCTAC | -0.325
ATAAGTTA | 0.208
GGTAATAC | 0.18
CCAGCAGC | -0.262
AGGGTCAA | 0.0235
ACCGATAA | 0.18
GTCGTAAC | -0.00388
AGCCCTTA | -0.116
GAAGCGCA | 0.00885
GCCTCTAC | -0.256
ATAAAAGC | 0.139
GATGAGGC | -0.237
TTACCAAA | 0.0865
AGTGGTTC | -0.0574
GACGTATA | 0.0204
ACGTCAGT | -0.0652

Sequence | PBM E-score
CACGCCAA | -0.0569
CACGTCGG | -0.127
CAATCGGA | 0.286
CCTGTACG | -0.0826
AGTGTCGG | 0.139
CACCCCTG | -0.24
ACCGTAGG | -0.334
CAGGCAGG | -0.197
AATCGTCA | 0.0105
GCCCGCGC | -0.106
CGCGTTAA | -0.00965
CGGCGACG | 0.0219
CCTATCCG | -0.0504
AATCGTGA | -0.0296
ATAAACGG | 0.247
TACATACA | 0.249
GATGATAC | 0.148
AGAAAAGG | 0.118
GCTAATAA | 0.0879
GTCTAAAA | -0.00696
CCGGTGAG | -0.0789
GGCGAGCA | -0.21
CGCGGTTA | 0.00192
ACGTTTTG | -0.0348
AAAGGTGA | -0.124

Sequence | PBM E-score
GGATTGCA | 0.0644
GGGAGATA | -0.144
AGTATGAT | 0.168
TCATCGAA | 0.0449
CGAACACA | 0.0704
AGAGAATC | -0.0404
CCGATCGC | -0.12
TACCGTGA | -0.0661
GAGACGGA | 0.142
CTTACATC | 0.003
ATGGTGCA | -0.0833
CTTGAGTC | -0.137
ATAGAGCG | 0.0262
ACTGTCAA | -0.099
ACTTCTCT | -0.0607
CTGACTTA | 0.186
AATTGCCC | -0.0207
AGCAGGCT | -0.209
ATCGCCCG | -0.0476
ACCGGTCA | -0.08
CCAGAACG | -0.104
GAGTCCAA | -0.00222
GTACGCAC | -0.193
CCATCGTC | -0.0517
CACTGGTA | -0.13

Sequence | PBM E-score
ATCACTAG | -0.0162
AATAGAAT | 0.217
GGTACACC | -0.299
CAGAAAAC | 0.00262
ACGGCTCG | 0.128
GTCAACAC | 0.0603
CAACAGAC | -0.0762
TGACGGCA | -0.281
AATGTACT | 0.149
CTAGTCCC | -0.239
TATTCGAA | 0.0804
CACCGGTA | -0.12
CAGCTGTA | -0.0988
AGATTATC | 0.156
ATCGGTGA | 0.0337
AGTCCACG | -0.171
ATTACCGA | 0.224
CACATTCG | 0.0133
CTCCCTAA | -0.142
AGCGAAGG | -0.186
CCGTTATC | 0.112
AATGCTCA | -0.0771
CCCTAGCG | -0.237
ACAATCAA | 0.125
GACGGAGC | 0.231

Sequence | PBM E-score
AAATGATG | 0.16
AACGACAA | 0.192
ATAGATTA | 0.242
GCCCGAAA | 0.111
CCGCTTTA | -0.0207
GGGTGTTA | -0.0598
AGACGCTG | -0.192
GCCGTCCA | 0.00979
CATCGCAG | -0.258
CGCGAACA | -0.0835
CTTTCCGA | 0.226
ATGACCGC | -0.139
ACTGATCA | 0.136
AATTGCTC | 0.104
AGGTATGA | 0.0346
ATGCAACG | 0.0331
ACAACGTC | -0.0808
GGCTTCCA | -0.0931
ATGATAAC | 0.168
GATGAGCC | -0.0961
CAGATCTA | -0.205
CACCATGA | -0.141
ATCACATA | 0.218
GACGGTAC | 0.00029
GGATTCCA | 0.061

Sequence | PBM E-score
CACGGGTC | -0.154
CGCCCCTC | -0.317
CGCAACCA | -0.101
CTTTGGGC | 0.00284
CAACGCTA | -0.0788
ACGAATGG | 0.0891
AATGCGCT | -0.0347
CGACGGTA | -0.0354
CATTGCAG | -0.209
GATTTCTA | 0.245
CCAGAGAC | -0.13
AGTTGACC | 0.0376
CCCAGCAA | -0.0792
GCTAACCC | -0.142
GTCAAGGA | -0.168
CGAGAGGA | -0.043
ATAGCTAG | -0.276
ACAGGAAG | -0.0109
GAAGAACA | 0.207
AAACCTAA | 0.051
GAAGATTA | 0.109
AACGAATT | 0.0668
TCATCACA | -0.0829
CCAACAAA | 0.131
ACACAGCT | -0.136

Sequence | PBM E-score
TAGGTGCA | -0.19
AGATGGAC | 0.0207
GTCGATAA | -0.0703
ATGGGGGA | -0.282
CAACTTGA | 0.186
AAAGAAGT | 0.0914
ACTGAGCA | -0.243
ACGCACGG | -0.128
CAGGTGCC | -0.165
GACTCATC | -0.206
ATTCGGTA | 0.16
AGCCAAAG | -0.122
CCGTGTGA | 0.00325
CGTGCAGA | -0.148
CATTCGAG | 0.0226
AATTAAGG | 0.0513
TCTCGGAA | 0.215
AAATGTGC | 0.155
GGCTCCGA | 0.338
TGCGACCA | 0.0542
CAGGGAAC | -0.163
AATTCAGT | -0.0626
AATACGCT | 0.0763
AAGAACCA | 0.0523
CAGATGGC | -0.0583

Sequence | PBM E-score
CATATGGC | -0.0639
ACATGAAA | 0.00044
GTTGGTGA | -0.0399
ATTTGAGG | -0.161
GGTCACTA | -0.0511
AATTACAT | 0.193
CGGGACAA | -0.15
ATCGGTCG | -0.0794
ACTAATAT | 0.211
AACGCAAC | 0.126
GTAAATGA | 0.153
AAAGCTCG | 0.169
GGTCTACA | 0.0554
GATGTAGA | -0.0859
GGCACCAA | -0.00537
ATTCGGAC | 0.455
CTCAATCA | 0.0165
CCTGGCCC | -0.0837
AGGCACCT | -0.131
AATCTGCT | 0.0742
AGGTTGCC | -0.216
CTAAGTAA | 0.114
ACGTAACG | -0.202
AGTGGGTC | -0.134
CTCCGTCA | 0.369

Sequence | PBM E-score
AGCGCAAG | -0.23
AAAATGAT | 0.342
GGTGCCAC | -0.129
TAATGATA | 0.317
CGCTGCGA | -0.153
ACGCTCTA | -0.26
CTTTCCCA | -0.0281
CCGTTACG | 0.00488
GACGAGTC | -0.0919
AGCGTAAC | 0.099
AAAGTTGG | 0.136
GAGCGTAA | 0.0537
AGCCAACT | -0.0881
ACGCCGAT | -0.0988
AACTGATT | 0.0393
GGAAGACC | 0.0221
GCAAAGGC | -0.0759
CACATAAG | -0.052
ATTAGAAA | 0.139
